# Measured values from PubChem BioAssay AID485294 (National Center for Advancing Translational Sciences (NCATS), 2010).
# The whole screen tested about 370,000 compounds, of which about 150 (0.041%) were called active. The inconclusive results got no clear call from the source; some entries with a clear call stand among them for comparison. The call rests on the fitted dose curve; in most records, active means well fitted inhibition curve with a large enough effect; inconclusive means small, poorly fitted or top-dose-only effect; inactive means flat fitted curve, though single readings scatter. Potencies of inconclusive entries are left out as doubtful fits.
# Target: Beta-lactamase (Escherichia coli (strain K12)) (UniProt P00811)
# Sequence of UniProt P00811 (P00811 whole entry, looked up): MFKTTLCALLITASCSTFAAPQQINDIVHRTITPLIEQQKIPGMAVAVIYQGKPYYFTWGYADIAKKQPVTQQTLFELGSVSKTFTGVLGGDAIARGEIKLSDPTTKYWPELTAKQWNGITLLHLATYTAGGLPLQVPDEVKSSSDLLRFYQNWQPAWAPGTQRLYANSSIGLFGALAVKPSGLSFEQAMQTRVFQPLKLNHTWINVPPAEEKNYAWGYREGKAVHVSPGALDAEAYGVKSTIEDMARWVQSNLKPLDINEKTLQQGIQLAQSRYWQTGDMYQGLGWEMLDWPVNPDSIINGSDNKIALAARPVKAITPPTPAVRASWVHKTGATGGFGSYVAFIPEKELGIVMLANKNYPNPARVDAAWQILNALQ
# Assay: qHTS Inhibitors of AmpC Beta-Lactamase (assay with detergent); further: nearly all actives have a fitted effect of over 25% in size;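 on activity change, negative = inhibition: 0% = no-compound wells and -100% = no-enzyme wells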
# Details: AmpC hydrolysis of nitrocefin, absorbance 480 nm, 0.01% Triton; activity change, negative = inhibition: at 114 µM (top of the series)
# In short: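 AmpC (5.3 nM in the dispensed reagent) in 20 mM phosphate pH 7.0 with 0.01% (detergent screen) or 0.0001% Triton X-100 was preincubated with compounds for 15 min at room temperature. Nitrocefin was then added from an 800 uM solution, and hydrolysis was followed at 480 nm.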
# Potency means the concentration at half of the fitted maximal effect; tags describe the fitted curve by direction and shape.
Compound,"activity change, negative = inhibition",Potency
Cc1ccc2c(c1)nnn2C1CCN(S(=O)(=O)c2ccc(C(=O)O)cc2)CC1,inactive: 3.19%,–
Nc1nc2n(n1)C1(CCCCC1)C1=C(CCCC1)N2,inactive: -21.2%,–
CN(C)c1nc(N(C)C)n(C(=O)c2cccs2)n1,–,"inconclusive [inhibitor, partial curve, poor fit]"
O=C(Nc1ncccc1Cl)c1cccc(F)c1,–,"inconclusive [inhibitor, partial curve, poor fit]"
Cc1ccc(-c2nnn(CC(=O)N(Cc3ccc(F)cc3)C(C(=O)NC3CCCC3)c3ccncc3)n2)o1 (stereo not drawn),–,"inconclusive [inhibitor, single point]"
Cc1ccc(NC(=S)NNC(=O)C2CC2c2ccc(C)cc2)cc1 (stereo not drawn),–,"inconclusive [inhibitor, partial curve]"
Cc1cc(SCC(=O)NC(=O)NCc2ccco2)nc2ccccc12,inactive: -4.51%,–
Cc1cc(C(=O)NNC(=O)c2ccc(S(=O)(=O)N(C)C)cc2)c(C)o1,–,"inconclusive [inhibitor, full curve, poor fit]"
CCN(CC)S(=O)(=O)c1ccc2c(c1)nc(CCC(=O)Nc1ccc3c(c1)OCO3)n2CC,–,"inconclusive [inhibitor, partial curve, poor fit]"
O=C(NCCc1ccccc1Cl)c1ccc2c(c1)nc1n2CCCCC1,inactive: -7.18%,–
Cc1c(N2C(=O)c3ccc(F)cc3C2=O)c(=O)n(-c2ccccc2)n1C,–,"inconclusive [inhibitor, partial curve]"
Fc1ccc(CN(Cc2ccccc2)C(c2cccs2)c2nnnn2C2CCCCC2)cc1 (stereo not drawn),–,"inconclusive [inhibitor, full curve]"
CC1CC(C)CN(c2ccc([N+](=O)[O-])nc2)C1 (stereo not drawn),inactive: 2.77%,–
Cc1nn2c(N3CCN(C(=O)c4ccco4)CC3)cc(C(C)(C)C)nc2c1-c1ccccc1,inactive: -8.45%,–
Cn1cccc1/C=N/NC(=O)c1cccs1,inactive: 0.992%,–
O=C(NCCc1ccccc1)c1oc2ccccc2c1COc1ccccc1,inactive: -4.28%,–
CCN(CC)c1ccc(/C=N/Nc2nc(C)cc(=O)[nH]2)c(O)c1,–,"inconclusive [inhibitor, single point]"
CC1=C(C(=O)Nc2ccccc2)C(c2cccn2C)n2ncnc2N1 (stereo not drawn),inactive: 16.8%,–
Cc1ccc(C)c(Cn2c(C3CC(=O)N(c4ccccc4C)C3)nc3ccccc32)c1 (stereo not drawn),inactive: -5.48%,–
CC12CC3CC(C)(C1)CC(CN)(C3)C2,–,"inconclusive [inhibitor, partial curve, poor fit]"
O=C(NCc1ccc(F)cc1)C(=O)NCC(c1ccco1)N1CCOCC1 (stereo not drawn),–,"inconclusive [inhibitor, full curve]"
COc1cc(C(=O)OCC(=O)NCC2CCCCC2)ccc1OCC(C)C,–,"inconclusive [inhibitor, partial curve, poor fit]"
O=C(Cc1ccc(Br)cc1)NC1CCCc2ccccc21 (stereo not drawn),inactive: -1.49%,–

Compound,"activity change, negative = inhibition",Potency
O=C1CCC([N+](=O)[O-])C(c2cccc([N+](=O)[O-])c2)N1 (stereo not drawn),–,"inconclusive [inhibitor, single point]"
O=C(NCc1ccccc1)C(c1ccccc1F)N(C(=O)c1csnn1)C1CCCC1 (stereo not drawn),–,"inconclusive [inhibitor, partial curve]"
CCCC1Nc2ccc(C(=O)O)cc2C2C=CCC12 (stereo not drawn),inactive: -2.3%,–
Cn1c(=O)[nH]c(=O)c2c1nc(N1CCCC1)n2CC(O)COc1ccccc1 (stereo not drawn),–,"inconclusive [inhibitor, full curve]"
CCOC(=O)C1CCN(C(=O)Nc2ccc3snnc3c2)CC1,–,"inconclusive [inhibitor, full curve, poor fit]"
O=c1cccc2n1CC1CC2CN(c2ncnc3c2cnn3-c2ccccc2)C1 (stereo not drawn),–,"inconclusive [inhibitor, full curve, poor fit]"
O=C(NCc1ccccn1)/C(=N/O)c1ccccc1,inactive: -5.1%,–
COc1cc(CO)cc(Br)c1OCC(=O)O,–,"inconclusive [inhibitor, full curve]"
C=CCn1cccc(C(=O)Nc2cc(OC)cc(OC)c2)c1=O,–,"inconclusive [inhibitor, partial curve]"
COc1cccc(C(=O)Nc2ccc(NC(=O)C(C)(C)C)cn2)c1,inactive: -2.99%,–
Cc1ccccc1NC(=O)CSc1nc2ncc(Cl)cc2[nH]1,–,"inconclusive [inhibitor, full curve, poor fit]"
COCCNS(=O)(=O)c1ccc2c(c1)oc(=O)c1cc(S(=O)(=O)NCCOC)ccc12,–,"inconclusive [inhibitor, full curve, poor fit]"
CCOC(=O)Cn1ncc2c3ccccc3n(CC(=O)OCC)c2c1=O,–,"inconclusive [inhibitor, partial curve, poor fit]"
CCn1cc(C(=O)N2CCN(c3ccccc3F)CC2)c(=O)c2cc(S(=O)(=O)N(C)C)ccc21,inactive: 2.55%,–
Cn1c(=O)n(/N=C/c2ccccc2)c2ccccc21,–,"inconclusive [inhibitor, single point]"
CCOc1cccc(C(=O)NC(=S)NCc2cccnc2)c1,inactive: 1.04%,–
Cc1cc(OCC(=O)N[C@@H](Cc2c[nH]c3ccccc23)C(=O)O)c2c(C)c(C)c(=O)oc2c1,–,"inconclusive [inhibitor, full curve, poor fit]"
CC(C)(C)CC(=O)Nc1ccc(C(N)=O)cc1,–,"inconclusive [inhibitor, partial curve, poor fit]"
CC(C)CCNC(=O)CN(C(=O)CCC(=O)Nc1ccccn1)c1ccc2c(c1)OCO2,–,"inconclusive [inhibitor, full curve]"
COc1ccc2[nH]cc(C(=O)NCCc3ccccc3)c(=O)c2c1,–,"inconclusive [inhibitor, full curve, poor fit]"
CCCc1nnc(NC(=O)CCC(=O)N2CCCCC2)s1,inactive: -4.18%,–
C/C(NC1CCCCC1)=C(/C#N)C(=O)NCCN1CCOCC1,–,"inconclusive [inhibitor, full curve, poor fit]"
c1ccc(SCc2nc3ccccc3s2)nc1,inactive: -5.91%,–

Compound,"activity change, negative = inhibition",Potency
Cc1c(F)cccc1NS(=O)(=O)c1ccccc1C#N,–,"inconclusive [inhibitor, full curve, poor fit]"
CN(C[C@H](Cc1ccccc1)N(C[C@H](Cc1ccccc1)N(CC1(c2ccccc2)CC1)N=O)N=O)N=O,inactive: -3%,–
CCN(CC)C(=O)c1ccc(N2C(=O)C3CC=C(Cl)CC3C2=O)cc1 (stereo not drawn),inactive: -11.9%,–
O=C(C[n+]1cc(-c2ccc(F)cc2)n2c1CCC2)N1c2ccccc2Sc2ccccc21,–,"inconclusive [inhibitor, partial curve, poor fit]"
O=C(CCCCCNC(=O)N1CCn2c1nc1ccccc12)N[C@H](C(=O)O)c1ccccc1,–,"inconclusive [inhibitor, full curve, poor fit]"
COc1ccc(C(=O)Oc2cc(/C=N/NS(=O)(=O)c3ccc(C)cc3)ccc2OC)cc1,–,"inconclusive [inhibitor, partial curve, poor fit]"
CSCC[C@H](NC(=O)OC(C)(C)C)c1nnc(SCc2cccc(F)c2)o1,–,"inconclusive [inhibitor, single point]"
C=CCn1c(CNc2ccccc2)nnc1SCC(=O)N/N=C/c1ccccc1O,–,"inconclusive [inhibitor, full curve, poor fit]"
COCCN=C1N[C@@H](c2ccc(Br)cc2)C(C(=O)OC)=C(C)N1Cc1ccccc1,–,"inconclusive [inhibitor, partial curve]"
COc1ccc(CCNC(=O)CSc2nnc(-c3ccco3)c(-c3ccco3)n2)cc1OC,–,"inconclusive [inhibitor, full curve, poor fit]"
Cc1csc(NC(=O)CSc2nnc(NC(=O)COc3ccccc3)s2)n1,–,"inconclusive [inhibitor, full curve, poor fit]"
CC(=O)OCC[N+](C)(C)C,–,"inconclusive [inhibitor, full curve, poor fit]"
CCSc1nnc(NC(=O)NC(C)(C(F)(F)F)C(F)(F)F)s1,–,"inconclusive [inhibitor, full curve]"
COc1ccc(CCNC(=O)c2cc(-c3ccc(Cl)c(Cl)c3)oc2C)cc1,–,"inconclusive [inhibitor, partial curve, poor fit]"
CCN(CC)c1ncn(Cc2c(Cl)cccc2Cl)c2ncnc1-2,–,"inconclusive [inhibitor, full curve, poor fit]"
CN(CC(=O)Nc1cccc(F)c1)C(=O)CNS(=O)(=O)c1ccc(N(C)C)c([N+](=O)[O-])c1,–,"inconclusive [inhibitor, single point]"
COc1cccc(C(=O)Nc2c(F)c(F)c(F)c(F)c2F)c1,–,"inconclusive [inhibitor, partial curve]"
O=C1C2C3C=CC(CC3)C2C(=O)N1c1ccc([N+](=O)[O-])cc1 (stereo not drawn),inactive: -8.17%,–
O=C(CCN1C(=O)/C(=C/c2cccs2)SC1=S)Nc1ccc(C(=O)O)cc1,inactive: 5.84%,–
Cn1cccc1Cc1nnc(SCC(=O)N2CCc3ccccc32)n1-c1ccc(F)cc1,–,"inconclusive [inhibitor, full curve, poor fit]"
O=C(Cn1nc(C(F)(F)F)cc1C1CC1)NCc1ccccc1F,–,"inconclusive [inhibitor, full curve, poor fit]"
CCOCCCNC(=O)C(NC(=O)c1ccc(=O)[nH]c1)c1ccccc1 (stereo not drawn),–,"inconclusive [inhibitor, full curve, poor fit]"
